{"source": "PubChem BioAssay AID485297", "about": "(National Center for Advancing Translational Sciences (NCATS), 2010)", "note": "Hit rate of the full screen: of about 320,000 compounds, about 9,100 (2.8%) were called active. The shares of active, inactive and inconclusive entries below differ from those in the screen. Calls come from the whole dose curve; as a rule, active = well fitted activation curve with a large enough effect; inconclusive = small, poorly fitted or top-dose-only effect; inactive = no such curve, though single readings can be large or run the other way. Potencies of inconclusive entries are left out as doubtful fits. Potency is the fitted concentration of half-maximal effect; tags give direction and shape of the fitted curve.", "data": [{"experiment": "qHTS Assay for Rab9 Promoter Activators; note: nearly all actives have a fitted effect of over 60% in size", "settings": "Huh7 Rab9 promoter-luciferase reporter, luminescence, 24 h; series mostly up to 9.22 µM", "procedure,_shortened": "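Luminescence from Amplite-detected luciferase (10 minutes, ambient) reports Rab9 promoter activation. Before that, stable Rab9-luciferase Huh7 cells (1500/well, reduced-serum OP-MEM I plus 10% FBS) were exposed to compound for 24 hours at 37C.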", "values": [{"smiles": "O=C(c1ccccc1F)n1c2c(c3ccccc31)CCCC2", "Potency": "inactive"}, {"smiles": "COc1ccccc1C(=O)O/N=C(/c1ccncc1)c1ccc([N+](=O)[O-])cc1", "Potency": "inactive"}, {"smiles": "O=C(c1cc2ccccc2oc1=O)N(Cc1cccs1)C1CCS(=O)(=O)C1", "note": "(configuration not stated)", "Potency": "inconclusive [activator, single point]"}, {"smiles": "CCOC(=O)c1ccccc1NC(=O)C1CC(=O)N(c2ccccc2)C1", "note": "(configuration not stated)", "Potency": "inactive"}, {"smiles": "C=CCn1c(COc2ccc(OC)cc2)nc2ccccc21", "Potency": "inconclusive [activator, single point]"}, {"smiles": "Cc1c(/C=C/C(=O)c2ccccc2)cnn1C", "Potency": "inconclusive [activator, single point]"}, {"smiles": "COc1ccc(C(=O)NCC(=O)c2ccccc2)cc1", "Potency": "active: 3.55 µM"}, {"smiles": "CCCCN1C(=O)C(=O)N(c2ccccc2)C1=S", "Potency": "active: 3.55 µM"}, {"smiles": "O=C1c2ccccc2C(=O)N1CSc1nnc(Nc2ccccc2)s1", "Potency": "inconclusive [activator, single point]"}, {"smiles": "CC(C)(C)CC(=O)Nc1ccc(Nc2ccccc2)cc1", "Potency": "active: 3.16 µM"}, {"smiles": "CC(C)(C)c1ccc(-c2nnc(NC(=O)c3ccccc3)s2)cc1", "Potency": "inconclusive [activator, partial curve]"}, {"smiles": "O=S(=O)(NCCC1=CCCCC1)c1cccc(Br)c1", "Potency": "inactive"}, {"smiles": "COc1ccccc1CNC(=O)c1cccc(NC(=O)c2ccccc2)c1", "Potency": "inactive"}, {"smiles": "COc1ccc(-n2c(C)cc(C(=O)COC(=O)c3cc(NC(=O)c4cccs4)c(OC)c(OC)c3)c2C)cc1", "Potency": "inactive"}, {"smiles": "Cc1ccc(-c2csc3nc(C)n(N)c(=O)c23)o1", "Potency": "inconclusive [activator, partial curve]"}, {"smiles": "CN=C1SC(CC(=O)Nc2ccc(N3CCOCC3)cc2)C(=O)N1C", "note": "(configuration not stated)", "Potency": "inactive"}, {"smiles": "Cc1ccc(S(=O)(=O)N[C@H](C(=O)NCC2CCC(C(=O)O)CC2)C(C)C)cc1", "note": "(some centres not stated)", "Potency": "inactive"}, {"smiles": "COc1cc(C)ccc1OCCOc1c(C)cccc1Cl", "Potency": "inconclusive [activator, partial curve]"}, {"smiles": "Cc1ccc(O)c(NC(=O)c2noc3c2CCc2ccccc2-3)c1", "Potency": "inconclusive [activator, single point]"}, {"smiles": "CCCCn1cnc2c(oc3ccccc32)c1=O", "Potency": "inconclusive [activator, single point]"}, {"smiles": "COc1cc(C)ccc1OCc1cc(C(=O)N(Cc2c(C)nn(C)c2C)C2CC2)no1", "Potency": "inconclusive [activator, partial curve]"}, {"smiles": "O=C(Nc1cccc(O)c1)c1ccc([N+](=O)[O-])cc1Cl", "Potency": "inconclusive [activator, single point]"}, {"smiles": "O=c1nc(/C=C/c2ccc(O)c(O)c2)oc2ccccc12", "Potency": "inconclusive [activator, single point]"}, {"smiles": "COc1ccccc1C(=O)Nc1ccc2oc(-c3ccc(F)cc3)nc2c1", "Potency": "inconclusive [activator, partial curve]"}, {"smiles": "Cc1ccc(O)c(C(=O)CC(=O)c2cccc(F)c2)c1", "Potency": "inconclusive [activator, partial curve]"}, {"smiles": "Cc1csc(N2CCCC2=O)n1", "Potency": "inactive"}, {"smiles": "CCc1ccc(Oc2coc3cc(OC(=O)c4cc5ccccc5oc4=O)ccc3c2=O)cc1", "Potency": "inconclusive [activator, single point]"}, {"smiles": "O=C(Nc1ccc2nccnc2c1)Nc1ccccc1Cl", "Potency": "inconclusive [activator, partial curve]"}, {"smiles": "Cc1cc([N+](=O)[O-])nn1CC(=O)N(C)C1CCCCC1", "Potency": "inactive"}, {"smiles": "COc1cc(/C=N/Nc2nncc3ccccc23)cc(OC)c1OC", "Potency": "inconclusive [activator, single point]"}, {"smiles": "Cc1ccc(C)c(N2CCN(C(=O)CN3C(=S)NC(C)(C)CC3C)CC2)c1", "note": "(configuration not stated)", "Potency": "inactive"}, {"smiles": "COc1cccc(-c2nc(-c3ccc(NC(=O)c4cccs4)cc3)no2)c1", "Potency": "inconclusive [activator, partial curve]"}, {"smiles": "O=C(N/N=C/c1cccs1)C(O)c1ccccc1", "note": "(configuration not stated)", "Potency": "inactive"}, {"smiles": "Cc1nc(NC(=O)c2ccccc2)sc1C", "Potency": "active: 1.78 µM"}, {"smiles": "O=C(Nc1nc2c(s1)CCc1ccccc1-2)c1cccs1", "Potency": "inconclusive [activator, partial curve]"}, {"smiles": "COc1ccc(O)c(C(=O)CC(=O)c2ccc(F)cc2)c1", "Potency": "active: 0.708 µM"}, {"smiles": "Cc1ccc(C2=NN3C(=O)c4ccccc4C3C2)cc1", "note": "(configuration not stated)", "Potency": "inconclusive [activator, partial curve]"}, {"smiles": "O=C(Nc1ccccc1)N1CCOCC1", "Potency": "inactive"}, {"smiles": "CCc1nnc(NC(=O)c2ccc(-c3ccccc3Cl)o2)s1", "Potency": "inconclusive [activator, single point]"}, {"smiles": "CCOC(=O)C1(Cc2cccc(Cl)c2)CCCN(C(=O)c2cc(C(C)C)nn2C)C1", "note": "(configuration not stated)", "Potency": "inactive"}, {"smiles": "CCn1c(C)nc2cc(C(=O)N/N=C/c3ccc(O)cc3)ccc21", "Potency": "inactive"}, {"smiles": "Cc1ccnc(NC(=O)Nc2ccc(Br)cc2Cl)c1", "Potency": "active: 0.631 µM"}, {"smiles": "Cc1sc(NC(=O)c2ccccc2F)c(CN2CCCCC2)c1C", "Potency": "inconclusive [activator, single point]"}, {"smiles": "N/C(=N\\OC(=O)c1ccco1)c1ccc(Cl)cc1", "Potency": "inconclusive [activator, single point]"}, {"smiles": "Cc1nn(C)cc1CNC(=O)Nc1cccc(Cl)c1", "Potency": "active: 3.55 µM"}, {"smiles": "CS(=O)(=O)N1CCC(C(=O)Nc2ccc(F)c(Cl)c2)CC1", "Potency": "inactive"}, {"smiles": "CCOC(=O)c1sc(NC(=O)CSc2nncn2C)nc1C", "Potency": "inconclusive [activator, single point]"}, {"smiles": "C=C1N(c2cccc(Cl)c2)C(=O)OC1(C)C", "Potency": "inactive"}, {"smiles": "CC(=O)Nc1ccc(/C=C/c2nc(-c3ccccc3O)n[nH]2)cc1", "Potency": "active: 3.55 µM"}, {"smiles": "C=CCn1cccc(C(=O)Nc2ccc(OCC)cc2)c1=O", "Potency": "inconclusive [activator, partial curve]"}, {"smiles": "Cc1c(-n2c(=O)n(Cc3ccccc3)c(=O)c3[nH]cnc32)cccc1S(C)=O", "note": "(configuration not stated)", "Potency": "inactive"}, {"smiles": "CC(=O)Oc1ccc(/C=C2/CCc3ccccc3C2=O)cc1", "Potency": "inactive"}, {"smiles": "Cc1csc(NC(=O)c2cnc3ccccc3n2)n1", "Potency": "inconclusive [activator, partial curve]"}, {"smiles": "COc1cc(OC)cc(-c2cc3nc(C)c(CCC(=O)O)c(C)n3n2)c1", "Potency": "inactive"}, {"smiles": "CCOC(=O)c1cc(-c2ccccc2)sc1N", "Potency": "inconclusive [activator, single point]"}, {"smiles": "O=c1c2c(nc3n1CCCCC3)sc1c(O)cccc12", "Potency": "inconclusive [activator, single point]"}, {"smiles": "Cc1sc2ncnc(N3CCC(C(=O)Nc4ccc(F)cc4Cl)CC3)c2c1C", "Potency": "inactive"}, {"smiles": "CC(C)(CO)NC(=O)C12CC3CC(CC(Br)(C3)C1)C2", "Potency": "inactive"}, {"smiles": "CC(C)n1c(SCC(=O)Nc2ccc(N3CCOCC3)cc2)nnc1-c1ccco1", "Potency": "inactive"}, {"smiles": "Cc1cc(C)cc(OCCn2nnc3ccccc32)c1", "Potency": "inconclusive [activator, partial curve]"}, {"smiles": "Cn1c(CNc2ccccc2O)nc2ccccc21", "Potency": "inactive"}, {"smiles": "CCN(CC)C(=O)CN(c1ccc(Cl)cc1)S(=O)(=O)c1ccccc1", "Potency": "inactive"}, {"smiles": "O=C(COC(=O)c1ccccc1NC(=O)c1ccco1)NCCC1=CCCCC1", "Potency": "inconclusive [activator, partial curve]"}, {"smiles": "O=C(CCl)Nc1ccccc1C(=O)Nc1ccc2c(c1)OCO2", "Potency": "active: 0.398 µM"}, {"smiles": "COC(=O)c1sccc1NC(=S)N1CCN(c2ccccc2F)CC1", "Potency": "inactive"}, {"smiles": "O=C(Nc1ccc2ncccc2c1)c1cc(Cl)ccc1Cl", "Potency": "inconclusive [activator, partial curve]"}, {"smiles": "COc1ccc(C(=O)N/N=C(/C)c2cccc(NC(=O)C(F)(F)F)c2)cc1", "Potency": "inconclusive [activator, single point]"}, {"smiles": "CN(c1ccccc1)S(=O)(=O)c1ccc(Cl)c(C(=O)Nc2ccncc2)c1", "Potency": "inactive"}, {"smiles": "Cc1ccccc1C(=O)N1CCN(c2ccc(NC(=O)c3ccco3)cc2Cl)CC1", "Potency": "inactive"}, {"smiles": "COc1cc(C(=O)Nc2nc3ccccc3[nH]2)ccc1OC(F)F", "Potency": "active: 2.82 µM"}, {"smiles": "Cc1ccc(CC(=O)Nc2cccc(C)n2)cc1", "Potency": "inconclusive [activator, partial curve]"}, {"smiles": "COC1CCCN(C(=O)c2ccc3nc(Cc4cccc(Cl)c4)oc3c2)C1", "note": "(configuration not stated)", "Potency": "inconclusive [activator, partial curve]"}, {"smiles": "CCC(=O)c1ccc(N2CCCC2)c(F)c1", "Potency": "inactive"}, {"smiles": "Cc1ccc(NS(=O)(=O)c2ccc(NC(=O)C3CC3)cc2)c(C)c1", "Potency": "inactive"}, {"smiles": "O=C(Nc1ccc(N2CCCCC2)cc1)c1ccccn1", "Potency": "inconclusive [activator, partial curve]"}, {"smiles": "Cc1ccc2nc(SCC3CCCCO3)[nH]c2c1", "note": "(configuration not stated)", "Potency": "active: 0.112 µM"}, {"smiles": "Cc1ccccc1-c1cc(-c2ccccc2O)on1", "Potency": "inconclusive [activator, single point]"}, {"smiles": "CCC(=O)Nc1cccc(NC(=S)NC(=O)c2ccc(Cl)cc2)c1", "Potency": "active: 3.55 µM"}, {"smiles": "CCOc1ccc(NC(=O)Nc2cc(C)ccc2OC)cc1", "Potency": "inconclusive [activator, single point]"}, {"smiles": "CC1CCC(NC(=O)c2ccc(N3CCCC3=O)cc2)CC1", "note": "(configuration not stated)", "Potency": "inconclusive [activator, partial curve]"}, {"smiles": "Cc1cc(C(=O)N/N=C/c2cccc([N+](=O)[O-])c2)c(C)n1-c1ccccc1", "Potency": "inconclusive [activator, single point]"}, {"smiles": "Fc1ccc(CSc2nnc(-c3cccs3)o2)cc1", "Potency": "inconclusive [activator, single point]"}]}]}
